In PubChem BioAssay AID1645882 (National Center for Advancing Translational Sciences (NCATS), 2021):
In all, about 16,000 compounds went through this assay and about 120 (0.75%) were called active. Inconclusive results (about 4%) are left out. Calls follow the shape of the dose curve; as a rule, active = well fitted inhibition curve with a large enough effect; inconclusive = small, poorly fitted or top-dose-only effect; inactive = no such curve, though single readings can be large or run the other way. The list shows a part of the results.

Target: Rap guanine nucleotide exchange factor 3 (Homo sapiens) (UniProt O95398)
Chain of UniProt O95398 (O95398 whole entry, looked up): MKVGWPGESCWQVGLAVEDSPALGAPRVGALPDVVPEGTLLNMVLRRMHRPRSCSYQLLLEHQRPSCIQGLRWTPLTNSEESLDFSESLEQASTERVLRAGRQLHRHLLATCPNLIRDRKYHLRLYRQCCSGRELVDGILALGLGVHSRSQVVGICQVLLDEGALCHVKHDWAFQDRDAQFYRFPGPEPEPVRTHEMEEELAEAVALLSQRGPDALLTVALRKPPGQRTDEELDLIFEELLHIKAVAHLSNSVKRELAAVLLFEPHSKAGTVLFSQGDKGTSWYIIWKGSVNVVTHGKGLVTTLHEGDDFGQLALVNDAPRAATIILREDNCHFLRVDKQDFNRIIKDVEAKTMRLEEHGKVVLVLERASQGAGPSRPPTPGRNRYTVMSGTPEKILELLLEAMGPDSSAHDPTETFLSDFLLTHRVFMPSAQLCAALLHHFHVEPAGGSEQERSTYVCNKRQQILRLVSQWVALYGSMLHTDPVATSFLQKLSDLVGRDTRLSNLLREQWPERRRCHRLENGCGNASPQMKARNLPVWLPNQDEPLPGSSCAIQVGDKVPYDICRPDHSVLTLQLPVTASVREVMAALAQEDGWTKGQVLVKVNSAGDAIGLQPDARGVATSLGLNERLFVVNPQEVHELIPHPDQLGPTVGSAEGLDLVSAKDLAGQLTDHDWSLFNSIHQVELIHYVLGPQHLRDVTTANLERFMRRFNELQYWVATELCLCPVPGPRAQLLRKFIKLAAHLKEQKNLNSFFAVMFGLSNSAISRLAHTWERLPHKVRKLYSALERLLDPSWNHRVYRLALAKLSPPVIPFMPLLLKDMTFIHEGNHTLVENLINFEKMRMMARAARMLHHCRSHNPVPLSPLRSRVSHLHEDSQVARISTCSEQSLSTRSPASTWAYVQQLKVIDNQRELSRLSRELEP
Experiment: Validation qHTS for antagonist of cAMP-regulated guanine nucleotide exchange factor 3 (EPAC1);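 also: plate controls were DMSO for no effect and ATA control for full effect; nearly all actives have a fitted effect of over 75% in size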
Settings: EPAC1 Rap1B-BODIPY-GDP exchange, fluorescence; series mostly up to 150 µM; activity change, negative = inhibition: at the top concentration
Outline: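 Nucleotide exchange followed as fluorescence loss when BODIPY-GDP leaves Rap1B (480 nm excitation, 540 nm emission), read at 5 min intervals over 30 min. Reaction: 100 nM EPAC1, 250 nM RAP1B-BODIPY-GDP, 50 uM GDP; ATA and DMSO define normalization.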

| SMILES | activity change, negative = inhibition |
| --- | --- |
| CS(=O)(=O)N1CCC2(CCCN(Cc3ccccc3)C2)CC1 | inactive: 29.3% |
| O=C(c1ccncc1)N1CCC[C@@]2(CCN(c3ccccc3)C2)C1 | inactive: 17.6% |
| CN(c1nccc(=O)[nH]1)C1CCN(c2nc3ccccc3n2Cc2ccc(F)cc2)CC1 | inactive: 14.9% |
| Cc1cnc(-n2ncc(C(=O)NCc3ccncc3)c2-c2cccs2)nc1-c1ccc(F)cc1 | inactive: 2.18% |
| CC(C)=CCCC(C)C1CC[C@@]2(C)C3=C(CC[C@@]12C)C1(C)CCC(O)C(C)(C)C1CC3 (stereo not given in full) | inactive: -3.5% |
| CC(=O)OC(C)OC(=O)C(C)c1ccc(-c2ccccc2)c(F)c1 (stereo not given) | inactive |
| CN(C)C(=O)c1ccc(-c2nccc(NCc3cccs3)n2)cc1 | inactive: 19.4% |
| O=C(N/N=C\c1ccccc1O)c1ccccc1O | inactive: 12.6% |
| CN(C)c1ccc(/C=C/c2c3c(nc4ccccc24)CCCC3)cc1 | inactive: 60.1% |
| COc1ncc2nc(-c3ccccc3)c(=O)n(C3CC3)c2n1 | inactive: 4.15% |
| CCN1CCCC1CNC(=O)c1cnn(-c2nccc(-c3ccc(C)o3)n2)c1C1CC1 (stereo not given) | inactive: 12.2% |
| CS(=O)(=O)Nc1cccc(-c2nc(NCc3ccccc3)c3ccccc3n2)c1 | inactive: -4.16% |
| COCc1c(C(=O)N2CCN(C3CCCC3)CC2)cnn1-c1ncc2c(n1)-c1ccccc1CCC2 | inactive: 13.3% |
| Cc1ncc(C[n+]2csc(CCOP(=O)(O)OP(=O)(O)O)c2C)c(N)n1 | inactive: 8.13% |
| Cn1c(=O)c(-c2ccccc2)nc2cnc(N3CCOCC3)nc21 | inactive: 12.6% |
| CC[C@H](CO)Nc1nc(NCc2ccccc2)c2ncn(C(C)C)c2n1 | inactive |
| Cc1ccc(C(=O)Nc2cccc(-c3nc(CNC(=O)c4cccc(N(C)C)c4)c(C)o3)c2)s1 | inactive: 6.1% |
| O=P(O)(O)OC(Cn1cncn1)(Cn1cncn1)c1ccc(F)cc1F | inactive: 15.2% |
| OCCN(CCO)c1nc(N2CCCCC2)c2nc(N(CCO)CCO)nc(N3CCCCC3)c2n1 | inactive |
| CC(CCCCC(=O)Nc1ccc(C(F)(F)F)cc1)NCCc1cnc[nH]1 (stereo not given) | inactive: 5.97% |
| c1nc(NCCN2CCOCC2)c2cc(-c3ccoc3)ccc2n1 | inactive: 13.1% |
| Cc1ccc(C)c(C(=O)N2CCC(C3(c4ccccn4)NC(=O)N(CC4CCCO4)C3=O)CC2)c1 (stereo not given) | inactive: -4.13% |
| CC[C@@H]1[C@H]2CCCC(=O)N3CC[C@@H](C[C@@H]1OC(=O)Nc1ccccc1)[C@@H]23 | inactive: 13.4% |
| ClC(Cl)Cl | inactive: 28.3% |
| CS(=O)(=O)N1CCC2(CCN(c3ccccc3)CC2)CC1 | inactive: 9.92% |

| SMILES | activity change, negative = inhibition |
| --- | --- |
| Cc1cc(/C=C/c2ccnc3ccccc23)ccc1N(C)C | inactive: 1.95% |
| COc1cc(=O)n2c(c1C(=O)NCc1ccco1)CCN(Cc1cccc(C)n1)CC2 | inactive: 1.86% |
| O=C(O)Cc1ccc(CCNS(=O)(=O)c2ccc(Cl)cc2)cc1 | inactive: -7.33% |
| O=C(O)c1ccccc1-c1oc2cc(O)ccc2c(=O)c1Oc1ccccc1 | inactive: 2.69% |
| COc1ccc2c(c1)-c1nc(-n3ncc(C(=O)N(C)CCO)c3C3CC3)ncc1CC2 | inactive: 5.8% |
| CN1CCN(C(c2ccccc2)c2ccccc2)CC1 | inactive |
| O=C(Cn1nc2ccccc2n1)N1CCOc2ccc(CN3CCc4sccc4C3)cc2C1 | inactive: 12.7% |
| COC(=O)[C@@H]1CC2=CC(=O)CC[C@]2(C)[C@@]23O[C@@H]2C[C@@]2(C)[C@@H](CC[C@@]24CCC(=O)O4)[C@H]13 | inactive: -2.73% |
| CC(C)Cc1nc2cc(NS(=O)(=O)N(C)C)cc(C(=O)N3CCSCC3)c2n1C | inactive: 3.75% |
| COc1cccc(Nc2ncc3ncc(=O)n(C[C@H]4CCCO4)c3n2)c1 | inactive: 28.9% |
| O=[N+]([O-])c1ccc2cn[nH]c2c1 | inactive: 0.214% |
| [N-]=[N+]=N[C@@H](CCN1CC[C@H](O)CCC1=O)c1ccccc1 | inactive: -1.31% |
| Cn1ccnc1C1CCCCN1C(=O)CN1Cc2ccccc2OC(c2ccccc2F)C1 (stereo not given) | inactive: 4.66% |
| O=c1onc2cnc3ccccc3n12 | inactive |
| c1cncc(OC2CCN(Cc3ccc4c(c3)CN(Cc3ccc5c(c3)OCO5)CCO4)CC2)c1 | inactive: 9.63% |
| COc1ncc2nc(-c3cc(F)cc(F)c3)c(=O)n(C3CC3)c2n1 | inactive: 9.73% |
| CN(C)c1ccc(/C=C/c2cc[n+](C)c3ccccc23)cc1 | inactive: -25.7% |
| C[C@]12CC[C@@H]3c4ccc(OC(=O)c5ccccc5)cc4CC[C@H]3[C@@H]1CC[C@@H]2O | inactive: -16.3% |
| COc1cc(C=C2CCC/C(=C\c3ccc(O)c(OC)c3)C2=O)ccc1O | inactive: 18.4% |
| Cc1c(C(=O)N(C)Cc2cccc3ncccc23)cnn1-c1nccc(-c2ccccc2F)n1 | inactive: 7.94% |
| N[C@H](C(=O)O)[C@@H]1[C@@H](C(=O)O)C1(F)F | inactive |
| CC(=O)c1ccccc1-c1ccc2c(c1)CC(CNC(=O)C[C@@H]1C[C@@H](C)NC(=S)N1)O2 (stereo not given in full) | inactive: 11.9% |
| CCCN(C/C=C/I)C1CCc2cccc(O)c2C1 (stereo not given) | inactive: 39.1% |
| FC(F)(F)c1ccccc1-c1ccc2ncnc(N3CCOCC3)c2c1 | inactive: 2.95% |
| COc1cccc(Cn2c(=O)c(C)nc3cnc(Nc4ccccc4)nc32)c1 | inactive: 0.562% |

| SMILES | activity change, negative = inhibition |
| --- | --- |
| CC(C)CC(=O)N1C/C=C\C[C@@H](c2ccc(Cl)cc2)N(Cc2ccc(Cl)cc2)C(=O)[C@@H]1Cc1ccccc1 | inactive: -2.67% |
| CN(C)C(=O)c1ccc(-c2nc(N3CCOCC3)c3ccccc3n2)cc1 | inactive: 9.86% |
| CCCCCCc1c(C[C@H](N)C(=O)O)o[nH]c1=O | inactive |
| c1cc2c(cc1C1CCCCC1)c1c3n2CCN[C@H]3CCC1 | inactive: -9.94% |
| O=C(c1n[nH]c2c1CCCC2)N1CCC(n2c(C3CCCO3)nc3ccccc32)CC1 (stereo not given) | inactive: 13.4% |
| CCN(CC)CCNC(C(=O)OCCC(C)C)c1ccccc1 (stereo not given) | inactive: 25.8% |
| C[C@@H]1C[C@H]2[C@@H]3CCC4=CC(=O)C=C[C@]4(C)[C@@]3(F)[C@@H](O)C[C@]2(C)[C@@]1(O)C(=O)COP(=O)(O)O | inactive: 22.3% |
| Cc1cccc(CNC(=O)c2c3n(c(C)cc2=O)-c2ccccc2SC(c2ccsc2)C3)n1 (stereo not given) | inactive: 12.9% |
| NCCCNCCCCNC(=O)C(O)NC(=O)CCCCCCN=C(N)N (stereo not given) | inactive: 37.8% |
| COCCn1c(=O)cnc2cnc(Nc3ccccc3)nc21 | inactive: -0.712% |
| CC(N)C(O)c1cccc(O)c1 (stereo not given) | inactive: 21% |
| NO | inactive: -0.401% [at 75.8 µM] |
| Cc1cc(C)c(S(=O)(=O)Nc2ccccc2C(F)(F)F)c(C)c1 | inactive: -7.52% |
| COCCC1CCCCN1Cc1nc(N2CCCC2)c2cc(OC)c(OC)cc2n1 (stereo not given) | inactive: -2.83% |
| O=c1[nH]c2ccccc2n1CCCN1CCN(C(c2ccccc2)c2ccccc2)CC1 | inactive: -2.02% |
| Nc1nc(Cl)nc2c1ncn2[C@@H]1O[C@H](CO)[C@@H](O)[C@H]1O | inactive |
| COc1ccc(NC(=O)N2CC3(CCN(C(=O)c4ccc(OC)cc4)CC3)C2)cc1 | inactive: 16% |
| N#C[C@H](Cc1ccc(O)cc1)c1ccc(O)cc1 | inactive: 8.56% |
| FC(F)(F)c1ccccc1-c1nc(NC2CCNCC2)c2ccccc2n1 | inactive: -1.98% |
| CC(C)[C@H](CO)Nc1nc(Nc2ccc(C(=O)O)c(Cl)c2)c2ncn(C(C)C)c2n1 | inactive: -20.8% |
| NC1(C(=O)O)C[C@@H](C(=O)O)[C@H](C(=O)O)C1 | inactive |
| COc1cc(COc2cc(N)c(Cl)cc2C(=O)CCC2CCN(CCNS(C)(=O)=O)CC2)cc(OC)c1 | inactive |
| CC(=O)N1CCC2(CCCN(c3ccccn3)C2)CC1 | inactive: 6.52% |
| COc1cccc(-c2cncnc2NCc2cnc(C)cn2)c1 | inactive: 11.9% |
| CCC[C@H](N[C@@H](C)C(=O)N1[C@@H]2CCCC[C@H]2C[C@H]1C(=O)O)C(=O)OCC | inactive: 29.7% |

| SMILES | activity change, negative = inhibition |
| --- | --- |
| COCC(=O)Nc1cc(C(=O)N2CCC(c3ccccc3)CC2)cc2nc(-c3ccccc3)n(C)c12 | inactive: 2.24% |
| Nc1nc2ncc(CNc3ccc(C(=O)N[C@@H](CCC(=O)O)C(=O)O)cc3)nc2c(=O)[nH]1 | inactive: 3.89% |
| COc1ccc(C(=O)c2ccccc2)c(O)c1O | inactive: 16.3% |
| Cn1cnc([N+](=O)[O-])c1Sc1ncnc2nc[nH]c12 | inactive |
| O=C(c1ccco1)N1CCC[C@@]2(CCN(c3ncccn3)C2)C1 | inactive: 23.6% |
| COc1ccc(C(=O)N2CCC[C@@]3(CCN(C(=O)NC(C)C)C3)C2)cc1 | inactive: 2.22% |
| CSc1nc(C(=O)NCc2nc(-c3cccc(NC(=O)c4ccc(C)s4)c3)oc2C)cs1 | inactive: 5.03% |
| C=C1C[C@@]23CC[C@H]4[C@@](C)(CCC[C@@]4(C)C(=O)OC4OC(CO)C(O)C(O)C4O)[C@@H]2CC[C@]1(OC1OC(CO)C(O)C(O)C1OC1OC(CO)C(O)C(O)C1O)C3 (stereo not given in full) | inactive: 0.891% [at 75.8 µM] |
| CNC(=O)Oc1ccc2c(c1)C1(C)CCN(C)C1N2C (stereo not given) | inactive: 5.85% |
| FC(F)(F)c1cccc(-c2cn[nH]c2C2CCCN(Cc3cccn3-c3ccccn3)C2)c1 (stereo not given) | inactive: 13.2% |
| COc1cccc(C(=O)CC2c3c(c(Br)c4c(c3OC)OCO4)CCN2C)c1 (stereo not given) | inactive: 9.02% |
| c1cc2cc(-c3c(-c4ccc5c(c4)OCO5)noc3-c3ccsc3)ccc2[nH]1 | inactive: -9.47% |
| CCC1CN(CCC(=O)N2CCCN(C(=O)c3ccco3)CC2)Cc2cc(OC)ccc2O1 (stereo not given) | inactive: 27.4% |
| COc1ccc2c(c1)CCC1C2CC[C@@]2(C)C(O)CCC12 (stereo not given in full) | inactive: 13.4% |
| CN1CCC(OC(=O)C(Oc2ccc(Cl)cc2)Oc2ccc(Cl)cc2)CC1 | inactive: 9.93% |
| CC(C)OC(=O)OCOP(=O)(CO[C@H](C)Cn1cnc2c(N)ncnc21)OCOC(=O)OC(C)C | inactive: 12.7% |
| CN(C)C(=O)/N=N/C(=O)N(C)C | inactive: -1.37% [at 75.8 µM] |
| CCNc1ncc2ncc(=O)n(C)c2n1 | inactive: 5.2% |
| Cc1ccc(S(=O)(=O)NC(=O)N[C@@H](C)Cc2ccccc2)cc1 | inactive: 14.6% |
| Nc1cc(Cl)c(NC2=NCCN2)c(Cl)c1 | inactive |
| C[C@@]12CCC[C@H]1[C@@H]1CC[C@H]3C[C@@H](O)CC[C@]3(C)[C@H]1CC2 | inactive: 0.626% |
| Cc1ccccc1-c1nc(Nc2ccncc2)c2ccccc2n1 | inactive: 13.2% |
| Cn1nc(C(=O)NCCN2Cc3ccccc3OC(c3ccsc3)C2)c2ccccc2c1=O (stereo not given) | inactive: 7.27% |
| O=C1[C@H](Cc2ccccc2)NCCCC[C@H](c2ccc(Cl)cc2)N1Cc1ccc(Cl)cc1 | inactive: -13.9% |
| OC1(c2cccnc2)CCN(Cc2ccc3c(c2)CN(Cc2cccc(C(F)(F)F)c2)CCO3)CC1 | inactive: -10.8% |
